Publication PMC12040169 (PLOS Biology, 2025)
The list shows a part of the results.

system: T1, C. trachomatis L2/434/Bu expressing GFP (CTL2-GFP); set-up: species or system HeLa; C. trachomatis total inclusion area by high-content imaging, normalised to DMSO; details: total inclusion area; 28.5 h, 10 µM; inhibitor
T1 construct: L2/434/Bu GFP intracellular growth in HeLa cells
Procedure, shortened: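 Host cell viability was gauged from Hoechst-stained nuclei counts, while chlamydial growth was taken from total inclusion area and inclusion number per well. Cells were fixed and imaged by high-content microscopy once bulk GFP and resorufin fluorescence had been measured.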

Structure (SMILES)	% of control remaining
O=C(O)C1C2C=CC(C2)C1C(=O)NCc1ccco1 (stereo not shown) [CBK265453]	111.013
CC(O)CNC(=O)c1cn2cc(-c3cccs3)n(CC3CC3)c(=O)c2n1 (stereo not shown) [CBK307117]	49.7379
O=C(Nc1ccc2n(c1=O)C[C@@H]1CNC[C@H]2C1)c1ccncc1 [CBK289177]	93.5253
CC(C)Nc1nccnc1Sc1ccccc1O [CBK089492]	94.0593
O=C(c1cc(-c2cccc(Br)c2)nc2ccccc12)N1CCN(C/C=C/c2ccccc2)CC1 [CBK262633]	91.8084
O=C(Nc1ccc2c(c1)OCO2)c1nccnc1-c1ccc(COc2ccccc2)cc1 [CBK050834]	95.9655
Cn1ncc2c(=O)[nH]c(N3CCN(c4cc(C#N)ccn4)CC3)nc21 [CBK304924]	34.6917
COc1cccc(CCN2N=C(C)CC2=O)c1OC [CBK067766]	109.218
Cc1nn(CCNC(=O)C2CC3C=CC2C32CC2)c(C)c1Cl (stereo not shown) [CBK281429]	95.3786
O=C(Nc1ccc(N2CCNCC2)nc1)c1cccnc1 [CBK029439T]	84.0103
FC(F)(F)c1cccc(Oc2nnnn2-c2ccccc2)c1 [CBK002798]	94.0203
Cc1cc(C)cc(/N=C2\NC(=O)C(CC(=O)O)S2)c1 (stereo not shown) [CBK286878]	89.6799
O=S(=O)(Nc1nnc(C(F)(F)F)s1)c1csc2ccccc12 [CBK062009]	103.535
COC(=O)CCc1ccc(S(=O)(=O)N2CCCN(Cc3ccc4c(c3)OCO4)CC2)cc1 [CBK063130]	77.0762
CN1CCN(c2ccc(NC(=O)c3cc4oc(-c5ccccc5)nc4c(=O)n3C)cc2)CC1 [CBK200425]	95.9653
Cc1cc2c(cc1C)N(C(=O)CSc1nc3ccccc3[nH]1)C(C)(C)CC2C (stereo not shown) [CBK264144]	98.0782
Cc1cccc(C)c1OCc1nnc(SCC(=O)c2ccc(F)cc2)n1C [CBK269715]	100.587
CCC(NC1CCc2nc(COC)nn2C1)C1CCC1 (stereo not shown) [CBK304739]	68.374
CS(=O)(=O)Nc1ccc(C(=O)Nc2ccc(S(=O)(=O)N3CCCC3)cc2)cc1 [CBK268592]	124.061
Cc1cc(C)nc(SCc2nc3ccc([N+](=O)[O-])cc3[nH]2)n1 [CBK264634]	115.581
Cc1ccc(NC(=O)Cn2c(=O)cc(O)c3ccccc32)cc1 [CBK291116]	96.8929
OCCN1CCN(CC(O)COc2ccc(Cl)cc2Cl)CC1 (stereo not shown) [CBK278198C]	104.865
COc1ccc(C2=NN(c3ccc(C(=O)O)cc3)C(c3ccc(OC)c(OC)c3)C2)cc1 (stereo not shown) [CBK296134]	106.956
Cc1ccc(NC(=O)COc2ccc(/C=C\c3onc(C)c3[N+](=O)[O-])cc2)cc1 [CBK268928]	59.0186
Cc1ccc2[nH]c(C)c(CC(=O)N(C)CCN(C)C)c2c1 [CBK282674]	115.566
O=S(=O)(Cc1ccccc1Cl)NCCN1CCOCC1 [CBK269171]	98.8848
O=C(CN(C1CCCCC1)S(=O)(=O)c1ccc(Br)cc1)NCc1ccccn1 [CBK264846]	108.935

Structure (SMILES)	% of control remaining
O=C(c1cc(F)cc(F)c1)N1CCC(n2cnc3cccnc32)CC1 [CBK283636]	100.378
O=C(NCC1CCCN1)c1cc(C(=O)c2ccc(Cl)cc2Cl)c[nH]1 (stereo not shown) [CBK115923C]	87.0285
COc1ccc(CCNC(=O)N(CCC#N)C2CCCCC2)cc1OC [CBK156363]	68.3901
O=C(Cc1csc(NS(=O)(=O)c2ccc(-c3cccc([N+](=O)[O-])c3)cc2)n1)N1CCOCC1 [CBK200032]	76.9995
Cc1ccc(S(=O)(=O)c2nc(NCCN3CCOCC3)sc2Cl)cc1 [CBK269615]	94.5158
N#Cc1c[nH]nc1NS(=O)(=O)c1ccc(F)cc1 [CBK051018]	107.39
c1nc(Nc2ccc3[nH]ccc3c2)cc(-c2ccc3c(c2)OCO3)n1 [CBK037761]	97.8485
Cn1nnnc1SCC(=O)Nc1cccc2nsnc12 [CBK268973]	77.4311
CCS(=O)(=O)Nc1cc(N2CCNCC2)c2occc2c1 [CBK059429C]	68.6305
Cc1ccc(-c2nnc(C3CCCN(C(=O)C(C)C)C3)o2)s1 (stereo not shown) [CBK283058]	111.917
CCOc1ccc(/N=c2\scc(-c3ccc(OC)c(Br)c3)n2CCc2ccccc2)cc1 [CBK263654B]	104.589
CCc1cc(Br)ccc1S(=O)(=O)Nc1cccc2cccnc12 [CBK045012]	78.9169
CC(=O)c1cnc2cc(-c3ccc(Cl)cc3)nn2c1C [CBK051484]	110.067
Sc1nnc(-c2ccncc2)n1C1CCCCC1 [CBK288421]	93.8441
CCS(=O)(=O)c1ccc2oc([C@H]3CCN(C(=O)C4CCCCC4)C3)nc2c1 [CBK289381]	118.815
O=C(O)C1C2C=CC3(CN(C4CCCCC4)C(=O)C13)O2 (stereo not shown) [CBK287248]	91.4655
Cc1noc(C)c1C(=O)N1CCCCCC1c1cnn(C)c1 (stereo not shown) [CBK284974]	103.111
CCCNC(=O)C(C)Sc1nc2ccsc2c(=O)n1CC (stereo not shown) [CBK296745]	88.8283
CS(=O)(=O)c1ccc(-c2ccc3c(c2)OCCN(C2CCN(C(=O)CC(F)(F)F)CC2)C3)cc1 [CBK169260]	93.0642
Cc1ccn2cc(-c3ccc4c(c3)CC(C)N4S(C)(=O)=O)cc2c1 (stereo not shown) [CBK285253]	103.42
CN1CCCN(c2cncc(-c3cccs3)n2)CC1 [CBK065542]	87.4436
O=C(CN1C(=O)[C@@H]2CCCN2C(=O)c2ccccc21)N1CCCC1 [CBK282434]	104.187
Cc1ccc(S(=O)(=O)Nc2nnc(C)s2)cc1 [CBK045486]	26.8159
Cc1ccc2[nH]cc(CCN3CCC(C(=O)NC(=O)Nc4ccccc4F)CC3)c2c1 [CBK034974]	79.6623
C=CCn1c(-c2sc(NC(=O)CN3C(=C)c4ccccc4C3=O)nc2C)n[nH]c1=S [CBK297909]	92.6167
NS(=O)(=O)c1ccc(CNC(=O)c2cc(-c3ccncc3)nc3ccc(Cl)cc23)cc1 [CBK267770]	77.372
COc1cncc(-c2cccc(N3CCN(CCN(C)C)CC3)n2)c1 [CBK037024]	87.8799

Structure (SMILES)	% of control remaining
CS(=O)(=O)Nc1nccnc1OC1CCN(CCCn2c(=O)[nH]c3ccccc32)CC1 [CBK084277]	88.892
CC(CCO)CNS(=O)(=O)c1ccc(N2CCCC2=O)cc1 (stereo not shown) [CBK306358]	49.8568
Cc1ccc(C2(CN3CCC(NC(=O)c4cc[nH]n4)CC3)CC2)cc1 [CBK285360]	85.0004
O=C1OCCN1CCN1CCCN(Cc2ccc(F)cc2)CC1 [CBK304023]	17.5492
c1coc(-c2nc3cnccn3c2NC2CCCCC2)c1 [CBK283498]	110.809
Cc1nc(NC(=O)CCN2C(=O)COc3ccccc32)sc1-c1n[nH]c(=S)n1C [CBK295362]	104.875
COc1ccc([C@@]23CC[C@@H](NC(=O)c4ccc(F)c(C(F)(F)F)c4)C[C@@H]2N(C)CC3)cc1OC [CBK074967T]	80.2747
COc1cc(N2CCCNCC2)ncn1 [CBK085485C]	85.0784
Cn1c(=O)n(CC(=O)O)c(=O)c2c1nc(Br)n2Cc1ccccc1 [CBK026617]	101.661
CC1CCc2nn(CCNC(=O)Cc3cccs3)c(=O)cc2C1 (stereo not shown) [CBK284465]	94.4952
O=C(NCc1ccccc1)N1CCC(n2cnc3cccnc32)CC1 [CBK282281]	85.7059
CCn1cc(C(=O)O)c(=O)c2cnc(N3CCN(C(=S)Nc4ccc5c(c4)OCCO5)CC3)nc21 [CBK267895]	106.362
Cc1cc(NS(=O)(=O)c2cccc(Cl)c2C)n[nH]1 [CBK024382]	83.0483
Cc1cc(C)n(S(=O)(=O)c2cc(C(=O)O)c(Cl)cc2Cl)n1 [CBK113170]	84.4613
O=C(CSc1nnc(-c2cc(Br)ccc2O)[nH]1)NCCc1ccccc1 [CBK269007]	77.2107
NS(=O)(=O)c1ccc(NC(=O)c2ccc(COc3ccccc3)o2)cc1 [CBK267915]	91.6501
COc1c(O)ccc(/C=N\NC(=O)C2COc3cc4ccccc4cc3O2)c1[N+](=O)[O-] (stereo not shown) [CBK262836]	82.029
O=C(O)c1ccc(-c2c(Cl)cc([N+](=O)[O-])cc2Cl)o1 [CBK026623]	95.661
O=C(c1ccccc1)N1CCN(C(=O)c2ccco2)CC1 [CBK068314]	86.7551
COc1ccccc1CN(Cc1cccs1)C(=O)Cn1cnnn1 [CBK305866]	46.826
COc1ccc([C@]23CN(C)C[C@H]2CCN(C(=O)Nc2cccc(Br)c2)C3)cc1OC [CBK075106T]	69.9348
CC(NC(=O)CC1CCN(Cc2cccc(C(F)(F)F)c2)CC1)c1nc2ccccc2[nH]1 (stereo not shown) [CBK285952]	88.9732
C=CCN1CCC(C(=O)NC(=O)NCC2COc3ccccc3O2)CC1 (stereo not shown) [CBK051099]	90.6325
CC1CCCN(C(=O)C2C3CCC4(CC(=O)c5ccccc5O4)C32)C1 (stereo not shown) [CBK284932]	68.7004
CC(C)[C@H](CO)Nc1nc(-c2ccco2)cn2ccnc12 [CBK066316]	74.5854
